Assay results reported in PubChem BioAssay AID1508642 (National Center for Advancing Translational Sciences (NCATS), 2021).
Screen size: about 43,000 compounds; about 200 (0.47%) were called active. Inconclusive means that the source gave no clear call. Such entries were picked first, then a sample of the others. The call rests on the fitted dose curve; in most records, active means well fitted cell-killing curve with a large enough effect; inconclusive means small, poorly fitted or top-dose-only effect, or effect the other way; inactive means flat fitted curve, though single readings scatter. A potency beside an inconclusive call is a rough fit, not a confirmed value.

test: Cell viability qHTS assay in S16 Pmp22-F2sN cells; conditions: S16 Pmp22-F2sN Schwann cells viability, CellTiter-Glo, 24 h; series mostly up to 57.5 µM; further: nearly all actives have a fitted effect of over 65% in size
In short: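 Viability was measured by CellTiter-Glo luminescence (15 min, room temperature). This followed 24 h at 37 °C of compound exposure (23 nL pin transfer) in S16 Pmp22-F2sN Schwann cells, 500-1,000 per well.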
Potency means the concentration at half of the fitted maximal effect; tags describe the fitted curve by direction and shape.

| Structure (SMILES) | Potency |
| --- | --- |
| COc1ccc(-c2ccc(CCC(=O)O)n2-c2ccccc2O)cc1 | inactive |
| CC(CCc1ccccc1)NC(=O)CSc1n[nH]c(-c2ccc(F)cc2)n1 (stereo not given) | inactive |
| COc1ccc(-c2nn3c(=O)cc(CN4CCN(S(=O)(=O)c5ccc(C)cc5)CC4)nc3s2)cc1 | inconclusive: 39.8 µM [cytotoxic, single point] |
| COc1ccc(C(=O)Nc2ccc(S(=O)(=O)N(Cc3ccccc3)c3ccccc3)cc2)cc1 | inactive |
| COc1ccc(C(=O)NNc2ncnc3c2cnn3-c2cccc(Cl)c2)cc1OC | inconclusive: 39.8 µM [cytotoxic, partial curve, poor fit] |
| COc1ccccc1-c1cc(C(=O)Nc2cc(OC)c(OC)c(OC)c2)no1 | inconclusive: 8.91 µM [cytotoxic, partial curve] |
| CCN(CC)c1ccc(C(=O)NCc2ccc3c(c2)CCN3C(=O)c2ccc(F)cc2)cc1 | inconclusive: 7.94 µM [cytotoxic, full curve] |
| Cc1ccc(NC(=O)C2CCN(S(=O)(=O)c3c(C)noc3/C=C/c3cccs3)CC2)cc1F | inconclusive: 0.891 µM [cytotoxic, full curve] |
| Nc1c(C(=O)Nc2ccccc2F)sc2nc3c(cc12)CCCCCC3 | inconclusive: 8.91 µM [cytotoxic, partial curve] |
| CCc1ccccc1NC(=O)CN1CCCN(Cc2cc(C)ccc2C)S1(=O)=O | inconclusive: 39.8 µM [cytotoxic, partial curve, poor fit] |
| CC(=O)c1cccc(NS(=O)(=O)c2cc(-c3cnc(C4CC4)o3)ccc2C)c1 | inconclusive: 12.6 µM [cytotoxic, partial curve] |
| CCS(=O)(=O)c1ncc(Cl)c(C(=O)Nc2ccccc2)n1 | active: 6.31 µM |
| COc1cc(Cl)c(NS(=O)(=O)c2cc(-c3cc(C)no3)ccc2OC)c(OC)c1 | inactive |
| Cc1ccc(-c2nc(CS(=O)CC(=O)N3CCN(c4ccc(Cl)cc4)CC3)c(C)o2)cc1 (stereo not given) | inconclusive: 28.2 µM [cytotoxic, single point] |
| Cc1cc(NC(=O)CSc2ncc(C(=O)Nc3ccc(F)cc3)c(=O)n2C)no1 | inactive |
| Cc1ccc(CNC(=O)CCS(=O)(=O)c2cc(Br)cc3c2N(C(=O)C2CC2)CC3)cc1 | inactive |
| CCCCn1c(CNC(=O)c2ccc(OC)cc2)nnc1SCC(=O)Nc1ccc(OC)cc1 | inactive |
| COc1ccccc1CCNC(=O)C(=O)NCC(c1ccco1)S(=O)(=O)c1ccc(C)cc1 (stereo not given) | inconclusive: 39.8 µM [cytotoxic, single point] |
| Cc1ccn2c(Nc3ccc4c(c3)OCCO4)c(-c3ccc(Cl)s3)nc2c1 | inactive |
| COc1ccc(OC)c(CNC(=O)CCCn2ccc3cc(S(=O)(=O)N4CCCC4)ccc32)c1 | inconclusive: 11.2 µM [cytotoxic, partial curve, poor fit] |

| Structure (SMILES) | Potency |
| --- | --- |
| COc1ccc(Nc2c3c(nc4ccc(NC(=O)c5ccc(F)cc5)cc24)CCCC3)cc1OC | inconclusive: 35.5 µM [cytotoxic, single point] |
| Cc1ccc(C)c(NC(=O)c2ccc(CN3CC(=O)N4CCCCC4C3=O)cc2)c1 (stereo not given) | inconclusive: 0.1 µM [cytotoxic, full curve, poor fit] |
| CCn1ccc2c(OCC(=O)Nc3ccccc3C(F)(F)F)cccc2c1=O | inconclusive: 15.8 µM [cytotoxic, partial curve, poor fit] |
| O=C(NCC(c1ccco1)S(=O)(=O)c1cccs1)c1ccccc1F (stereo not given) | inactive |
| Cc1cc(C)n(-c2nnc(Nc3ccc(C)c(Cl)c3)c3ccccc23)n1 | inconclusive: 39.8 µM [cytotoxic, single point] |
| COc1cc(C2Nc3c(C)cc(C)cc3-c3cc(C)nn32)cc(OC)c1O (stereo not given) | inconclusive: 15.8 µM [cytotoxic, partial curve] |
| COc1ccc(Cn2c(C(=O)O)c(CNCCc3cc(OC)ccc3OC)c3ccc(C)cc32)cc1 | inconclusive: 39.8 µM [cytotoxic, single point] |
| COc1ccc(-c2nc(SCC(=O)Nc3c(C)cc(C)cc3C)n[nH]2)cc1 | inactive |
| CCn1cc(C(=O)N2CCN(c3cccc(C)c3C)CC2)c2cc(OC)c(OC)cc2c1=O | inconclusive: 28.2 µM [cytotoxic, partial curve, poor fit] |
| CCCCN(CC)CCCNC(=O)c1nn(C)c2c1CSc1ccccc1-2 | inactive |
| O=C(NCCCN1CCN(c2ccccc2)CC1)c1ccc2nc(Cc3ccccc3)oc2c1 | inconclusive: 39.8 µM [cytotoxic, single point] |
| CCC1CCCCN1C(=O)CSc1nc2c([nH]c3ccccc32)c(=O)n1-c1ccc(OC)cc1 (stereo not given) | inconclusive: 0.355 µM [rising, full curve] |
| COc1cccc(CNC(=O)C2CCN(S(=O)(=O)c3cn(C)cn3)CC2)c1 | inconclusive: 0.0355 µM [rising, full curve, poor fit] |
| CC(=O)N1c2ccc(S(=O)(=O)N3CCCCCC3)cc2CC1C(=O)NCc1ccc(Cl)cc1 (stereo not given) | inconclusive: 10 µM [cytotoxic, partial curve, poor fit] |
| CC(=O)c1ccc(NC(=O)CSc2cn(CC(=O)N3CCCCCC3)c3ccccc23)cc1 | inconclusive: 39.8 µM [cytotoxic, single point] |
| COc1ccc(-c2cc(C(=O)NCc3ccc(F)cc3)c3c(-c4ccc(F)cc4)[nH]nc3n2)cc1OC | inconclusive: 22.4 µM [cytotoxic, single point] |
| CCCCC(CC)CNC(=O)C1CCC(CNS(=O)(=O)c2cccc3nsnc23)CC1 (stereo not given) | inconclusive: 22.4 µM [cytotoxic, single point] |
| O=C(NCc1ccccc1)c1ccc2c(c1)CCN2S(=O)(=O)c1ccccc1 | inconclusive: 39.8 µM [cytotoxic, single point] |
| CC1CCN(S(=O)(=O)c2ccc(C(=O)Nc3sc4c(c3C(N)=O)CC(C)(C)NC4(C)C)cc2)CC1 | inconclusive: 7.94 µM [cytotoxic, partial curve, poor fit] |
| Cc1cccc(C)c1-n1ncc(C(=O)N2CCN(c3ccccn3)CC2)c1C1CCN(C(=O)OC(C)(C)C)CC1 | inconclusive: 35.5 µM [cytotoxic, single point] |
